For this assay, the target named is T1, FGFR1c ligand-binding domain (UniProt P11362 142-365).
T1 sequence (looked up): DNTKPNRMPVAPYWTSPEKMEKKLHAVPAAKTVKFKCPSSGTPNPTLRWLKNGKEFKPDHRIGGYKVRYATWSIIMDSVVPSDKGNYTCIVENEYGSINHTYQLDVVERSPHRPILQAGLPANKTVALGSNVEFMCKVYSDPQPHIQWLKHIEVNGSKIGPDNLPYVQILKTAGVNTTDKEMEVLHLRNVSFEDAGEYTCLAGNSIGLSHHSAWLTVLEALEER
In words: SEC-MALS.

B1: wild-type FGF1 (fibroblast growth factor 1) (ligand)
chain: not shown
In the case of B1, the “stoichiometry N” value came to 1.
